{
  "source": "PubChem BioAssay AID485360",
  "about": "(National Center for Advancing Translational Sciences (NCATS), 2010)",
  "note": "The campaign covered roughly 230,000 compounds. About 1,500 (0.65%) were called active. The inconclusive results got no clear call from the source; some entries with a clear call stand among them for comparison. Calls follow the shape of the dose curve; as a rule, active = well fitted inhibition curve with a large enough effect; inconclusive = small, poorly fitted or top-dose-only effect; inactive = no such curve, though single readings can be large or run the other way. A potency beside an inconclusive call is a rough fit, not a confirmed value. % is scaled to controls: 0 for no effect and ±100 for the full control effect; potency is read from the fitted curve at half-maximal effect; tags tell the direction and shape of the fitted curve.",
  "data": [
    {"target": "Lethal(3)malignant brain tumor-like protein 1 (Homo sapiens) (UniProt Q9Y468)", "sequence (Q9Y468 whole entry, looked up)": "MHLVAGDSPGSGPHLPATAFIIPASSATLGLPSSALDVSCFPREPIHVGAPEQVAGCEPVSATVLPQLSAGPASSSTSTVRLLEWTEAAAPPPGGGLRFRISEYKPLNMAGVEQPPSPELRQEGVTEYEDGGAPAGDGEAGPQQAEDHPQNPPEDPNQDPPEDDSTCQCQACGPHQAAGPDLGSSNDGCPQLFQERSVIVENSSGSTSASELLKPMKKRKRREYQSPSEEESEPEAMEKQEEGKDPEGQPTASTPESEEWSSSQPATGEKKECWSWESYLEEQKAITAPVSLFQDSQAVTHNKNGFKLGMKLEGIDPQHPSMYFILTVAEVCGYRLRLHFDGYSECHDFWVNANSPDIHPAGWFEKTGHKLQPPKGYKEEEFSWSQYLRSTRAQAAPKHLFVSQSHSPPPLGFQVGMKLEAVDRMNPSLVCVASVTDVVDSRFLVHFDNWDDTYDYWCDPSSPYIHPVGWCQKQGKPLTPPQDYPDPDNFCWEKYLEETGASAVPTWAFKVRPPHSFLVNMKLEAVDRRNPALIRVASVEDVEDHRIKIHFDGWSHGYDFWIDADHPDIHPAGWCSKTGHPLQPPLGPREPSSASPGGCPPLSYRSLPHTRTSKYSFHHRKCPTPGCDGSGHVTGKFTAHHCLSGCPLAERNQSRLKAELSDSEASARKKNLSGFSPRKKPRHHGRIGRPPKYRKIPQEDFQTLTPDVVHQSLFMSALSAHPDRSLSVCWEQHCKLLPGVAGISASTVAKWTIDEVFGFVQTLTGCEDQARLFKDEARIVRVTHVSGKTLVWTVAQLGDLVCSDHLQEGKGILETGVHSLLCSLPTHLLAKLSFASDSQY", "experiment": "qHTS Assay for the Inhibitors of L3MBTL1; also: nearly all actives have a fitted effect of over 60% in size", "conditions": "AlphaScreen L3MBTL1–H3K9me1 peptide binding; activity, negative = inhibition: at 57.1 µM (top of the series)", "in_short": "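AlphaScreen assay: L3MBTL1 (50 nM final) was preincubated 30 min at room temperature with biotinylated H3(1-15)K9me1 peptide (75 nM final), then 30 min with library compounds; streptavidin donor and nickel chelate acceptor beads (10 ug/mL final) added, 30 min dark.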", "values": [
      {"smiles": "COCCNCC(=O)N1CCCCCC1", "Potency": "inconclusive: 0.112 µM [inhibitor, full curve, poor fit]"},
      {"smiles": "O=C(COc1cccnc1[N+](=O)[O-])NC1CCS(=O)(=O)C1", "note": "(stereo not drawn)", "Potency": "inconclusive: 39.8 µM [inhibitor, single point]"},
      {"smiles": "CC(C)CN(C(=O)CCc1ccccc1)c1c(N)n(CC(C)C)c(=O)[nH]c1=O", "activity, negative = inhibition": "inactive: 10.8%"},
      {"smiles": "CN1CCS/C1=C/C=C1/SC(=S)N(Cc2ccccc2)C1=O", "Potency": "inconclusive: 25.1 µM [inhibitor, partial curve]"},
      {"smiles": "CN(CC(=O)Nc1ccccc1Cl)C(=O)COC(=O)c1cc(S(=O)(=O)N(C)C)ccc1N1CCCC1", "Potency": "inconclusive: 0.794 µM [inhibitor, single point]"},
      {"smiles": "Cn1cc(SCC(N)=O)c2ccccc21", "activity, negative = inhibition": "inactive: 9.34%"},
      {"smiles": "C=CCNC(=O)c1sccc1Oc1ccc(F)cc1[N+](=O)[O-]", "Potency": "inconclusive: 10 µM [inhibitor, partial curve, poor fit]"},
      {"smiles": "Cc1nnc(NC(=O)c2c(-c3ccccc3)noc2C)s1", "activity, negative = inhibition": "inactive: 9.32%"},
      {"smiles": "CCCCN(CCCC)C(=O)c1c[nH]c2ccc(S(=O)(=O)Nc3cccc(Cl)c3C)cc2c1=O", "Potency": "inconclusive: 31.6 µM [inhibitor, single point]"},
      {"smiles": "COc1ccc(NC2=C(Cl)C(=O)N(CCc3ccccc3)C2=O)c(OC)c1", "Potency": "inconclusive: 12.6 µM [inhibitor, partial curve]"},
      {"smiles": "O=C(O)C(Cc1c[nH]c2ccccc12)NS(=O)(=O)c1ccc2ccccc2c1", "note": "(stereo not drawn)", "activity, negative = inhibition": "inactive: -12.2%"},
      {"smiles": "COC(=O)c1ccc2c(=O)[nH]c(COC(=O)c3[nH]c(C)c(C(C)=O)c3C)nc2c1", "activity, negative = inhibition": "inactive: 2.36%"},
      {"smiles": "C#CCOCCOCCOCCNc1nc(N2CCN(C(=O)C(Cc3cc4ccccc4[nH]3)n3cc(C(N)Cc4ccc(O)cc4)nn3)CC2)nc(N2CCN(C(=O)C(Cc3cc4ccccc4[nH]3)n3cc(C(N)Cc4ccc(O)cc4)nn3)CC2)n1", "note": "(stereo not drawn)", "Potency": "inconclusive: 0.708 µM [inhibitor, full curve, poor fit]"},
      {"smiles": "COc1ccc(NCc2ccc([N+](=O)[O-])s2)cc1", "Potency": "inconclusive: 25.1 µM [inhibitor, single point]"},
      {"smiles": "CC(=O)c1ccc2c3c(ccc(O)c13)CC2", "Potency": "inconclusive: 39.8 µM [inhibitor, partial curve]"},
      {"smiles": "CCOCC(=O)Nc1nc2ccc(C)cc2s1", "Potency": "inconclusive: 6.31 µM [inhibitor, single point]"},
      {"smiles": "COC(=O)C1CCN(C(=O)COc2ccc(Cl)cc2)CC1", "Potency": "inconclusive: 7.08 µM [inhibitor, single point]"},
      {"smiles": "CC(C)Cn1c(=O)c2ccccc2c2ccccc2c1=O", "Potency": "inconclusive: 2.82 µM [inhibitor, partial curve]"}
    ]}
  ]
}
